The record followed here is ChEMBL document CHEMBL4888484, “Replenishing the malaria drug discovery pipeline: Screening and hit evaluation of the MMV Hit Generation Library 1 (HGL1) against asexual blood stage Plasmodium falciparum ,using a nano luciferase reporter read-out” (2022).

The campaign covered roughly 150,000 compounds. About 540 (0.36%) showed an effect of 50% or more. This is one part of the list.

The assay concerns Plasmodium falciparum. As to the kind of experiment: Primary screen in NF54 nanoGlo assay, in single point, at 2uM, 72h; a lower Z score goes with more inhibition. It is filed as functional, Erythrocyte. The following applies: timepoint 72 hour.
As a reminder, the % Inhibition is the change of the read-out against control, counted positive when it falls. `COc1ccc(-c2ncncc2-c2csc(C)n2)c(O)c1OC`: the “% Inhibition” value is -10% and the Z score is 1.33.

With `CCc1cc(=O)n2c3ccccc3n(Cc3ccccc3Cl)c2n1`, the “% Inhibition” value stood at 32% and the Z score is on record as -3.65.

Turning to `C[C@@H](c1nccc(N)n1)N(C)CCCc1ccccc1`, the “% Inhibition” value came to 3% and the Z score is -0.3.

As to `C[C@H](NC(=O)OC(C)(C)C)c1nc(C2CCOCC2)cs1`, the “% Inhibition” value was -13% and the Z score is listed as 1.33.

In the case of `Cc1nc([C@H](C)NC(=O)c2ccncc2F)n[nH]1`, the “% Inhibition” value is given as -2% and the Z score was found to be 0.42.

Take `Cc1ccc(C2CCN(S(=O)(=O)c3cnc(C4CC4)s3)C2C(=O)O)cc1` (centres undefined): the “% Inhibition” value is -3% and the Z score is 0.35.

On to `CCc1nc(C(=O)NC(c2ccccc2)C(C)C(=O)OC)c[nH]1` (centres undefined), for which the “% Inhibition” value is reported as -4% and the Z score is 0.52.

As to `COc1cc(-n2cnnn2)c(Cl)cc1C(=O)N(C)CC(=O)Nc1ccc(F)cc1`, the “% Inhibition” value was 4% and the Z score is given as -0.83.

Consider `Cc1c(Cl)cc(C(=O)N2Cc3nc[nH]c3C[C@H]2C(=O)O)cc1Cl`, for which the “% Inhibition” value is given as -18% and the Z score was 2.65.

Consider `C[C@@H]1CN(C[C@@H]2CN(C(=O)c3cc(C4CC4)no3)C[C@@H]2CO)C[C@H](C)O1`, for which the “% Inhibition” value is -5% and the Z score was 0.72.

For the compound `CCC1CC(C)CN1C(=O)CC1(CS(C)(=O)=O)CC1` (centres undefined), the “% Inhibition” value is given as -9% and the Z score stood at 0.93.

Turning to `Cc1nc(O)cc(CCn2cc(-c3cncnc3)nn2)n1`, the “% Inhibition” value was -10% and the Z score stood at 1.96.

`COc1ccccc1-n1cc(C(=O)NCC(=O)N2CCN(c3cccc(Cl)c3)CC2)c2ccccc2c1=O`: the “% Inhibition” value was determined as 0% and the Z score was -0.03.

With `O=C(Nc1ccn(C2CCCCC2)n1)N1CCC[C@@](O)(CO)C1`, the “% Inhibition” value is listed as -11% and the Z score is on record as 1.92.

As for `COc1cc2c(cc1OC)CN(C(=O)c1c(C)cnn1-c1ccccc1)CC2`, the “% Inhibition” value is recorded as -10% and the Z score is on record as 1.38.

As for `N#Cc1cccnc1N[C@H]1CCN(Cc2ccccc2)C1`, the “% Inhibition” value is recorded as -12% and the Z score was 1.07.

On to `CN(C)c1nc(N2CCC(C(=O)N3CCCC3)CC2)cc(C(F)(F)F)n1`, for which the “% Inhibition” value is 6% and the Z score is listed as -1.

As to `COC(=O)c1ccc(C)c(NC(=O)c2cn(C)cn2)c1O`, the “% Inhibition” value was -2% and the Z score is given as 0.17.

Turning to `CCN(C(=O)Nc1ccc(-c2ccco2)cc1)C1CCOCC1`, the “% Inhibition” value was -2% and the Z score is 0.23.

Consider `Cc1ccc(-n2nc3c(N4CCC(C(=O)N[C@H]5CCCc6ccccc65)CC4)nnc(C)c3c2C)cc1`, for which the “% Inhibition” value came out at 13% and the Z score is -1.51.

As to `Cc1ncoc1C(=O)N1CCCCC[C@@H]1CC(=O)c1ccccc1`, the “% Inhibition” value was -7% and the Z score was 0.96.

On to `CC(=O)Nc1ccc(CNC[C@H]2Cn3cc(-c4ccccc4)nc3CO2)cc1`, for which the “% Inhibition” value is listed as -10% and the Z score is 1.57.

For `CC1CN(C2CCN(C3CC4CCC3C4)CC2)CC(C)O1` (centres undefined), the “% Inhibition” value was found to be 7% and the Z score is recorded as -0.98.

In the case of `O=C(NCC(F)(F)F)N1CCCC[C@H]1c1nc(-c2ccccc2)c[nH]1`, the “% Inhibition” value was -6% and the Z score is reported as 0.65.

On to `O=C1NCCCCCN(C(=O)c2nccc3ccccc23)[C@H]2CCC[C@@H]12`, for which the “% Inhibition” value is given as -3% and the Z score is recorded as 0.43.

As for `Cc1ccc(F)c(Cc2noc([C@@H]3CCCN(C)C3=O)n2)c1`, the “% Inhibition” value is -18% and the Z score was found to be 2.81.

For the compound `CS(=O)(=O)N1CC(CS(=O)(=O)N[C@H]2CCCC(F)(F)C2)C1`, the “% Inhibition” value is given as -9% and the Z score is recorded as 1.49.

As for `Cc1ccc(C2CC(C)CCN2C(=O)CC(O)C(C)C)o1` (centres undefined), the “% Inhibition” value is -8% and the Z score is recorded as 0.84.

In the case of `Cc1ccncc1C(=O)N1CC[C@H](CCOc2ccccc2)C1`, the “% Inhibition” value is given as -15% and the Z score is given as 2.85.

For `CCCN(C(=O)c1c[nH]c(C)cc1=O)C1CC(OCC)C12CCCC2` (centres undefined), the “% Inhibition” value was -2% and the Z score was 0.17.

In the case of `CC(C)(C)OC(=O)NCCOCCNC1CCCC1c1ccccc1` (centres undefined), the “% Inhibition” value was -3% and the Z score came out at 0.24.

Consider `CN(C)S(=O)(=O)c1ccc(C(=O)NC[C@H]2CCCN2c2nccs2)cc1`, for which the “% Inhibition” value is -14% and the Z score stood at 2.69.

Turning to `C#CCN1CCC(C(=O)N(C)c2cc(-c3ccccc3)[nH]n2)CC1`, the “% Inhibition” value was -3% and the Z score is 0.44.

Take `Cc1cc(C)cc(C(=O)N2CC(n3cnc4c(N)nc(N)nc43)C2)c1`: the “% Inhibition” value is reported as -3% and the Z score was 0.39.

Consider `COCCn1ccc2ccn(Cc3ccccc3F)c(=O)c21`, for which the “% Inhibition” value was -6% and the Z score was 0.95.

With `CN(CC(C)(CO)CO)C(=O)c1ccc2ccc(Cl)cc2n1`, the “% Inhibition” value is -6% and the Z score came to 0.57.

With `Cc1cc(CN(C)C(=O)c2occc2C)no1`, the “% Inhibition” value is given as -13% and the Z score was 1.4.

As to `O=C(O)c1cc(-c2ccccc2)nc(Nc2nc3ccccc3s2)n1`, the “% Inhibition” value is reported as -43% and the Z score stood at 5.02.

In the case of `CCOC(=O)c1cc(-c2cccc(NC(=O)c3ccc4ccccc4n3)c2)n(-c2ccccc2C)n1`, the “% Inhibition” value is given as -13% and the Z score worked out at 1.96.

Take `CCOCCN(C)Cc1snnc1C`: the “% Inhibition” value is recorded as -9% and the Z score worked out at 1.07.

In the case of `CC1CCCN(S(=O)(=O)NCC2CN(C(=O)c3ccccc3)C3CCN2C3)C1` (centres undefined), the “% Inhibition” value is listed as -15% and the Z score was determined as 1.73.

For `CC[C@H](C)[C@H](N)C(=O)NCc1noc(C(N)=O)n1`, the “% Inhibition” value was -10% and the Z score stood at 1.03.
